Sequences and labels used below:
T1: UNK ZnF1-3 (human, UniProt Q9C0B0 31-174)
T1 sequence: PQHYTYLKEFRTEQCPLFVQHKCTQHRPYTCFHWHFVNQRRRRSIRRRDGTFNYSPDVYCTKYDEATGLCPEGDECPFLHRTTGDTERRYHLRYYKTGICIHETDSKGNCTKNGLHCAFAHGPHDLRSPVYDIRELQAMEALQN

B1: chr13:14287670:14287671:+_ENSMUSG00000039219_ENSMUST00000039538|mus_hu|FALSE|FALSE (ssRNA)
RNA: GGGAGUUCUACAGUCCGACGAUCAGCAGCACUUUCUCUCUCUUUCUUCUUUAAACGCUUUCUCCUCCGAUCAAUGGAAGCUACUUCAGAUUUUAAUGACAGAUAAUGUUUUCUGAUUUCUUGAAGUUUUUCUUGAAGAAUUGUCAACAGAGGAUUGAGCAUCA
B2: chr5:31194218:31194219:+_ENSMUSG00000029165_ENSMUST00000031057|mus_hu|FALSE|FALSE (ssRNA)
RNA: GGGAGUUCUACAGUCCGACGAUCCAGAUCUACACGAAGUCCAUCCAGAGAAUAGCAAAGGAGCUCCCGAUGGUAAUAGAUGGUAUCCAGGGGGCUGCUAUGGGUAGGGUGGUUCUCCGGAAAGCGCUGGUCUAGCUGGUUUAGCAACAGAGGAUUGAGCAUCA
B3: chr7:133248287:133248288:-_ENSMUSG00000000131_ENSMUST00000171861|mus_hu|FALSE|FALSE (ssRNA)
RNA: GGGAGUUCUACAGUCCGACGAUCCAUCUUGAAAUUCCGCCCCAGCACACUUUUCUGGUUGGCAUCCACACCAUCACAGCUGGUCAGGAACUCUGGGAGGAAGGCGGCAAAGAAGCCAUCAAAGUCGACUGAGGCCAUGUUGUACAACAGAGGAUUGAGCAUCA
B4: chr8:95500983:95500984:-_ENSG00000164944_ENST00000437199|hu_hu|hu_hu_hu_mus_True|88_88 (ssRNA)
RNA: GGGAGUUCUACAGUCCGACGAUCAGAACACAUCUAUCGAGUAAAGGGAGCGUACAUACGGCCUCUACCACUGCCUCCACUAACAAACUUUCCUCUCGAGCCUCCACUGCCGCUAUUUGUACUAGCCCAGGACGGUCCCAGGCCCAACAGAGGAUUGAGCAUCA
B5: chr5:128448638:128448639:+_ENSG00000066583_ENST00000173527|hu_mus|hu_hu_hu_mus_False|18_18 (ssRNA)
RNA: GGGAGUUCUACAGUCCGACGAUCGGCACUCGCCUUAAUUAGGUUCUGAAUUUCCUUGAACUUCGGGUGGUCUUUGUCAGCCACCAGCUGUAGGAGGACAGCCUCACUAGUGGUCACUAUGAUCCCGGUGCGGGCAAGACGCUCCAACAGAGGAUUGAGCAUCA
B6: 112745619_112745739_867_CDS_ENSMUSG00000046441_ENSMUST00000056972|mouse|control|control (ssRNA)
RNA: GGGAGUUCUACAGUCCGACGAUCGACAGCUUCGCAGUAAUGCAAAGACGACACUAAGGCUUCCUGUUCACCUGGGUUUCCUUGGCAAUCGAAGCUGCCAUCAGCCGUGACCAAGUGAAUGGGAGACAUGCCGCUGAGGAAGUCCAACAGAGGAUUGAGCAUCA
B7: 11914_12034_1215_CDS_ENSG00000198886_ENST00000361381|human|control|control (ssRNA)
RNA: GGGAGUUCUACAGUCCGACGAUCUUGUUAAUGUGGUGGGUGAGUGAGCCCCAUUGUGUUGUGGUAAAUAUGUAGAGGGAGUAUAGGGCUGUGACUAGUAUGUUGAGUCCUGUAAGUAGGAGAGUGAUAUUUGAUCAGGAGAACCAACAGAGGAUUGAGCAUCA
B8: chr8:117878989:117878990:-_ENSG00000164754_ENST00000297338|hu_hu|hu_hu_hu_mus_True|1_38 (ssRNA)
RNA: GGGAGUUCUACAGUCCGACGAUCCCAGAGGCCCUCGUUUACUGAGGACAAAAUGUGCGUAGAACAUUUUUCUUAUUUGCUAUGAAAUAAGAAGAAAACCUUGCUCUGGCGGGGAGCCGGGAGGGGUGGGUGGCCCGGGGGAGGCAACAGAGGAUUGAGCAUCA
B9: 44656479_44656599_2094_CDS_ENSMUSG00000002028_ENSMUST00000002095|mouse|control|control (ssRNA)
RNA: GGGAGUUCUACAGUCCGACGAUCAUUACUAGGCAAGGUCACAGACUCAAAUAUUCUAGAGUGUGCCUCACUUGGAGUAAAUCUGGGAGCUCUCAGAAUGGGGCUCCUUUUAUGAAUAUCAAACCUUGUUCCAGAAUGGAGUGGCAACAGAGGAUUGAGCAUCA
B10: chr9:57762402:57762403:+_ENSMUSG00000055720_ENSMUST00000163329|mus_hu|FALSE|FALSE (ssRNA)
RNA: GGGAGUUCUACAGUCCGACGAUCCCAGGACUUUCGCAGAACAUGGACAGUGGACCCAGGUUGAAUGCCAUAGAAGUCAAGUGUCUGGUCAUCUUUUAGCUUCCGACCACAGUAGAUCAGAUCAAUCAGCUCAGGGUCUGGAACCAACAGAGGAUUGAGCAUCA
B11: chr1:60041781:60041782:+_ENSMUSG00000041040_ENSMUST00000036540|mus_hu|mus_mus_mus_hu_False|18_58 (ssRNA)
RNA: GGGAGUUCUACAGUCCGACGAUCAAGUUUACAAUAGUAAAGUAAAUGCAGUAGUGGCAAAUUUUCUUUUAUUUUCCUUCCUAAAAGAAAAUCUUUAUAACCCAGUCCUAGUCUUGGCAGAGAAAGCAGCUAUAAAUUCUGACUCAACAGAGGAUUGAGCAUCA
B12: 135711621_135711741_1686_CDS_ENSG00000082258_ENST00000295238|human|control|control (ssRNA)
RNA: GGGAGUUCUACAGUCCGACGAUCGCUGCUGGUGUGGUGGCGGCUUGAAGGAUGCUCCUUGUGCUUCUCCUUAUGGUCUCUGCUAAUAUGUGGGCUUGAAUGUUUGCUCUUCCCACUGCCUUCAUCAGAAGAGCUGUGUCUUUCCAACAGAGGAUUGAGCAUCA
B13: chr7:54823571:54823572:-_ENSG00000132432_ENST00000352861|hu_mus|hu_hu_hu_mus_False|28_108 (ssRNA)
RNA: GGGAGUUCUACAGUCCGACGAUCUCCCAUUAUAGCAAAUCCUAUAGCUGUAGCCAUGGCAAUCUUCUGGAAUUCUUUUCUGUCGGGUUUGGUGCAUCUUUUAACCAGCCGAAUGGAGUCCUUUACAAACUGCCGGCUGGGCUCCAACAGAGGAUUGAGCAUCA
B14: chr6:44221449:44221450:+_ENSG00000096384_ENST00000371646|hu_hu|motif|central (ssRNA)
RNA: GGGAGUUCUACAGUCCGACGAUCAAUGGGGCUUGACACCCUUAGUUUACUGCCUUCAACACAAGGACAGGAGAGGGAAAAAAACACGGGACACCAGCAGGGGGAGCCAGGUGGGACAGGGGCACUCGAGGCUGCAGUGGGAGCCAACAGAGGAUUGAGCAUCA

The other results are listed elsewhere or left out.

This test concerns the target T1, UNK ZnF1-3. The test can be described thus: nsRBNS (natural sequence RNA bind-n-seq); RBNS binding buffer (assumed for nsRBNS): 25 mM Tris pH 7.5, 150 mM KCl, 3 mM MgCl2, 0.01% Triton X-100, 500 ug/ml BSA, 20 U/ml SUPERase-In, 4 C; UNK is unkempt and MSI1 is Musashi-1; names of the RNAs are library labels; protein concentration not given here; high values mean tight binding.
With B1, the binding signal was 1.38 enrichment R.
In the case of B2 it was 1 enrichment R.
Turning to B3, the binding signal is 1.62 enrichment R.
As to B4, the binding signal was 1.57 enrichment R.
B5 gave a binding signal of 0.54 enrichment R.
B6: the binding signal turned out to be 0.556 enrichment R.
In the case of B7 it was 1.79 enrichment R; in that of B8, 2.3 enrichment R.
As for B9, the binding signal stood at 0.731 enrichment R.
B10 returned a binding signal of 1.24 enrichment R.
For the molecule B11, the binding signal was 1.06 enrichment R.
On to B12, for which the binding signal came to 0.666 enrichment R.
B13 had a binding signal of 0.841 enrichment R.
Molecule B14 returned a binding signal of 1.97 enrichment R.
